The other results are listed elsewhere or left out. Rule as the data show it: active = 3.2 or more and inactive = the rest. Only a few entries rise above the background.

Consider 18 molecules from the supplement of paper PMC10369915.

Sequences and labels used below:
B1: MYH7_Y410 (peptide)
chain: KVGNEYVTKGQ
B2: MYO7A_Y1668 (peptide)
chain: PTDSVYVMPTV
B3: MYO9A_Y203_YF (peptide)
chain: KFVKMYDNHQL
B4: MYL6_Y86_T85I (peptide)
chain: KDQGIYEDYVE
B5: MYH7_Y715_G716R (peptide)
chain: PNRILYRDFRQ
B6: MYO9A_Y216_L211P (peptide)
chain: PEPHIYAVADV
B7: MYH7_Y715_R712L (peptide)
chain: PNLILYGDFRQ
B8: MYO5C_Y526 (peptide)
chain: WLQKLYNNFVN
B9: MYL6_Y86_T85I_YF (peptide)
chain: KDQGIYEDFVE
B10: MYH7_Y1488_S1491C (peptide)
chain: KLKNAYEECLE
B11: MYH7_Y609_V606M (peptide)
chain: TVMGLYQKSSL
B12: MYO7A_Y2136 (peptide)
chain: IAINKYGVSLI
B13: MYO1D_Y586_R588H_YF (peptide)
chain: SKEPFYVHCIK
B14: MYH7_Y588_D587V (peptide)
chain: AGIVVYNIIGW
B15: MYH7_Y266_I263M (peptide)
chain: ADMETYLLEKS
B16: MYH7_Y164 (peptide)
chain: DNAYQYMLTDR
B17: MYO3B_Y993_R990C (peptide)
chain: IRCQGYSHRIL
B18: MYO1A_Y382_E385D (peptide)
chain: GVLDIYGFDIL
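Also: displayed peptides selected on beads carrying the immobilized SH2 domain, with library peptides lacking any tyrosine serving as negative controls.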

The first assay deals with SHP2 C-SH2 domain E139D. In words: enrichment score (SH2-bound / input frequency) (ratio); bacterial display of known human phosphotyrosine sites (pTyr-Var adds point mutants) read by sequencing; higher = stronger binding; tyrosines were phosphorylated by kinases first. The conditions noted are these: peptide library: pTyr-Var.
Turning to B1, the enrichment score is inactive: 0.487.

Turning to B2, the enrichment score was inactive: 0.678.

As to B3, the enrichment score was inactive: 0.799.

With B4, the enrichment score is inactive: 0.53.

Consider B5, for which the enrichment score was inactive: 0.49.

Take B6: the enrichment score was inactive: 0.652.

On to B7, for which the enrichment score is inactive: 0.846.

With B8, the enrichment score was inactive: 2.25.

Turning to B9, the enrichment score is inactive: 0.577.

Consider B10, for which the enrichment score is inactive: 0.913.

As for B11, the enrichment score was inactive: 1.24.

In the case of B12, the enrichment score was inactive: 0.919.

As to B13, the enrichment score was inactive: 0.908.

For B14, the enrichment score was inactive: 1.26.

Take B15: the enrichment score is inactive: 0.901.

Take B16: the enrichment score was inactive: 0.744.

Regarding B17, the enrichment score is inactive: 1.77.

With B18, the enrichment score was inactive: 1.13.

The next assay addresses SHP2 C-SH2 domain wild-type. The assay is described as above. The conditions noted are these: peptide library: pTyr-Var.
On to B1, for which the enrichment score was inactive: 0.478.

Consider B2, for which the enrichment score was inactive: 0.784.

On to B3, for which the enrichment score was inactive: 0.803.

For B4, the enrichment score was inactive: 0.659.

Take B5: the enrichment score is inactive: 0.504.

Turning to B6, the enrichment score was inactive: 0.826.

In the case of B7, the enrichment score is inactive: 0.874.

In the case of B8, the enrichment score is inactive: 2.3.

In the case of B9, the enrichment score was inactive: 0.716.

For the molecule B10, the enrichment score was inactive: 0.915.

As for B11, the enrichment score is inactive: 0.548.

For the molecule B12, the enrichment score is inactive: 1.11.

B13: the enrichment score is inactive: 0.832.

In the case of B14, the enrichment score was inactive: 1.67.

On to B15, for which the enrichment score was inactive: 0.675.

Regarding B16, the enrichment score was inactive: 0.75.

With B17, the enrichment score is inactive: 1.71.

Turning to B18, the enrichment score was inactive: 1.32.

The next assay deals with SHP2 N-SH2 domain L43F. The description is as above. The conditions noted are these: peptide library: pTyr-Var.
For B1, the enrichment score was inactive: 0.545.

B2: the enrichment score was inactive: 0.676.

Take B3: the enrichment score was inactive: 0.72.

B4: the enrichment score was inactive: 0.575.

In the case of B5, the enrichment score was inactive: 0.476.

B6: the enrichment score is inactive: 0.611.

Take B7: the enrichment score is inactive: 0.985.

On to B8, for which the enrichment score was inactive: 2.44.

Take B9: the enrichment score was inactive: 0.7.

Turning to B10, the enrichment score is inactive: 0.95.

In the case of B11, the enrichment score was inactive: 1.25.

Consider B12, for which the enrichment score was inactive: 0.746.

B13: the enrichment score was inactive: 0.727.

Regarding B14, the enrichment score was inactive: 1.56.

In the case of B15, the enrichment score is inactive: 0.786.

On to B16, for which the enrichment score is inactive: 0.593.

With B17, the enrichment score is inactive: 1.62.

As to B18, the enrichment score is inactive: 0.91.

The target in another assay is SHP2 N-SH2 domain T42A. The assay is described as above. The conditions noted are these: peptide library: pTyr-Var.
In the case of B1, the enrichment score was inactive: 0.376.

For B2, the enrichment score was inactive: 0.656.

As to B3, the enrichment score is inactive: 0.624.

On to B4, for which the enrichment score is inactive: 0.817.

B5: the enrichment score is inactive: 0.395.

B6: the enrichment score was inactive: 0.558.

With B7, the enrichment score is inactive: 1.19.

As to B8, the enrichment score was inactive: 2.25.

B9: the enrichment score was inactive: 0.615.

For B10, the enrichment score is inactive: 0.82.

Take B11: the enrichment score was inactive: 0.786.

Consider B12, for which the enrichment score is inactive: 0.578.

On to B13, for which the enrichment score was inactive: 0.606.

On to B14, for which the enrichment score is inactive: 1.33.

Turning to B15, the enrichment score is inactive: 0.645.

On to B16, for which the enrichment score is inactive: 1.22.

B17: the enrichment score was inactive: 1.72.

For the molecule B18, the enrichment score was inactive: 1.

A further assay has as its target SHP2 N-SH2 domain T52S. Described as above. Particulars: peptide library: pTyr-Var.
In the case of B1, the enrichment score was inactive: 0.463.

For the molecule B2, the enrichment score is inactive: 0.933.

As for B3, the enrichment score is inactive: 0.864.

For the molecule B4, the enrichment score is inactive: 0.529.

As for B5, the enrichment score was inactive: 0.424.

As for B6, the enrichment score is inactive: 0.777.

On to B7, for which the enrichment score was inactive: 0.985.

In the case of B8, the enrichment score was inactive: 2.36.

Consider B9, for which the enrichment score was inactive: 0.513.

Regarding B10, the enrichment score is inactive: 0.955.

Take B11: the enrichment score was inactive: 1.18.

On to B12, for which the enrichment score was inactive: 0.798.

For the molecule B13, the enrichment score is inactive: 0.781.

Take B14: the enrichment score was inactive: 1.05.

As for B15, the enrichment score was inactive: 0.783.

Turning to B16, the enrichment score is inactive: 0.886.

Take B17: the enrichment score was inactive: 1.91.

For B18, the enrichment score is inactive: 0.983.

The target in a further assay is SHP2 N-SH2 domain wild-type. The description is as above. Particulars: peptide library: pTyr-Var.
Regarding B1, the enrichment score is inactive: 0.834.

Consider B2, for which the enrichment score is inactive: 0.894.

On to B3, for which the enrichment score is inactive: 0.792.

Turning to B4, the enrichment score was inactive: 0.618.

In the case of B5, the enrichment score was inactive: 0.374.

For B6, the enrichment score was inactive: 0.834.

For B7, the enrichment score was inactive: 1.38.

In the case of B8, the enrichment score is inactive: 2.17.

On to B9, for which the enrichment score is inactive: 0.741.

For B10, the enrichment score is inactive: 0.938.

Turning to B11, the enrichment score was inactive: 1.02.

Take B12: the enrichment score was inactive: 1.35.

B13: the enrichment score was inactive: 0.747.

For B14, the enrichment score was inactive: 2.29.

Consider B15, for which the enrichment score was inactive: 0.772.

As to B16, the enrichment score was inactive: 0.709.

With B17, the enrichment score was inactive: 1.63.

Consider B18, for which the enrichment score is inactive: 1.16.
